Measurements from paper PMC12965331 (Biochemistry, 2025).

Assays:
NSP14 MTase [1] = biological target: T1, NSP14 MTase (Severe acute respiratory syndrome coronavirus 2, UniProt P0DTD1); details: read-out: KM of NSP14 MTase; method of initial rates, n=3; other substrate held constant at 200 μM
NSP14 MTase [2] = biological target: T1, NSP14 MTase; details: cited from earlier work; for activity toward NSP14 MTase: HTRF screen of 5,000 pharmaceutical compounds; for EC50: read-out: reported EC50, NSP14 MTase
HNMT = HNMT (Homo sapiens, UniProt P50135); test: HNMT specificity screen; format: biochemical
NSP14 MTase [3] = biological target: T1, NSP14 MTase; format: biochemical, SARS-CoV-2

Chain of UniProt P50135 (P50135 whole entry): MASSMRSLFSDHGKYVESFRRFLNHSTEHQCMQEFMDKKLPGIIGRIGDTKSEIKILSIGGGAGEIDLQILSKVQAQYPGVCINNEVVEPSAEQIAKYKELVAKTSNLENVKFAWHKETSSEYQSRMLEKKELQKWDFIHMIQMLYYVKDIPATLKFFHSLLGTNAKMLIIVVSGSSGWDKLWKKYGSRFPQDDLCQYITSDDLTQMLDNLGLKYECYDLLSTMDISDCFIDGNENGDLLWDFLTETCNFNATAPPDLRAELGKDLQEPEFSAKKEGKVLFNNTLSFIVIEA

Nc1nc2c(ncn2[C@@H]2O[C@H](COP(=O)(O)OP(=O)(O)OP(=O)(O)OC[C@H]3O[C@@H](n4cnc5c(=O)[nH]c(N)nc54)[C@H](O)[C@@H]3O)[C@@H](O)[C@H]2O)c(=O)[nH]1 [GpppG]
Km (NSP14 MTase [1]): 1.04 ± 0.14 µM

CCC(Sc1nnc2c(n1)[nH]c1ccccc12)C(=O)N1c2ccccc2Sc2ccccc21 (stereo not shown) [Inauzhin]
activity toward NSP14 MTase (NSP14 MTase [2]): micromolar activity | EC50 (NSP14 MTase [2]): 23 µM

Nc1nc(OCc2cc(Br)cs2)c2[nH]cnc2n1 [Lomeguetrib, Lomeguatrib]
activity toward NSP14 MTase (NSP14 MTase [2]): micromolar activity | EC50 (NSP14 MTase [2]): 59.8 µM

CC(=O)N1CCN(c2ccc(C(=O)N3CCN(Cc4ccccc4)CC3)nn2)C(=O)C1 [NCGC00537446]
potency difference between NSP14 MTase and HNMT (HNMT): greater than 10 fold | effect on VMAX, GpppG MTase substrate (NSP14 MTase [3]): some influence | effect on VMAX, SAM (NSP14 MTase [3]): no influence | increase of KM for SAM (NSP14 MTase [3]): roughly 2 fold | mechanism of inhibition with respect to GpppG (NSP14 MTase [3]): noncompetitive | effect on KM for GpppG MTase substrate (NSP14 MTase [3]; SAM constant at 100 μM, 0 to 10 μM compound): not significantly influenced

N#Cc1ccc(N2N=C3c4ccc(C(=O)O)cc4CC[C@@H]3[C@@H]2C2CCCC2)cc1Cl [PF-03882845]
activity toward NSP14 MTase (NSP14 MTase [2]): micromolar activity

C[S+](CC[C@H](N)C(=O)[O-])C[C@H]1O[C@@H](n2cnc3c(N)ncnc32)[C@H](O)[C@@H]1O (stereo partly shown) [SAM]
Km (NSP14 MTase [1]): 2.65 ± 0.27 µM
